# In PubChem BioAssay AID1963576 (National Center for Advancing Translational Sciences (NCATS), 2024):
# The campaign covered roughly 46,000 compounds. About 60 (0.1%) were called active. Roughly 3% stayed inconclusive and do not appear here. The call rests on the fitted dose curve; in most records, active means well fitted inhibition curve with a large enough effect; inconclusive means small, poorly fitted or top-dose-only effect; inactive means no such curve, though single readings can be large or run the other way. The list shows a part of the results.
# Assay: Primary qHTS assay for Inhibitors of ovarian cancer metastasis using an organotypic tumor microenvironment (TME) model. Further: nearly all actives have a fitted effect of over 65% in size.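 On activity change, negative = inhibition: plate controls were DMSO wells for no effect and tomatine positive control wells for full effect.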
# Conditions: SKOV3ip1-GFP adhesion/invasion on 3D omental model, fluorescence; series mostly up to 45.8 µM; activity change, negative = inhibition: at the top concentration
# In short: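 A 3D layer of primary human omental fibroblasts, mesothelial cells, fibronectin and collagen I, grown 48 hr, received SKOV3ip1-GFP cells in serum-free medium plus compounds at 0.36-46 umol/L. After 2 hr RT and 16 hr 37 C, fixed adherent GFP cells were counted; normalized to DMSO and tomatine.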
SMILES,"activity change, negative = inhibition",outcome
O=C(COc1ccccc1Cl)N1CCN(CCc2ccncc2)CC1,inactive: 2.66%,–
CC(=Cc1csc(C)n1)[C@@H]1C[C@H]2O[C@@H]2CCC[C@H](C)[C@@H](O)[C@@H](C)C(=O)C(C)(C)[C@@H](O)CC(=O)O1,inactive: -13.6%,–
O=C(COc1cccc(Cl)c1)N1CCN(CCc2ccncc2)CC1,inactive: 4.14%,–
Cc1ccc(Cn2cccc(C(=O)Nc3cc([N+](=O)[O-])ccc3C)c2=O)cc1,–,inactive
O=S1(=O)N(Cc2ccccc2)CCCN1Cc1cccc(Cl)c1,–,inactive
Cc1cccc(NC(=O)Cn2cc(C(=O)c3ccccc3)c3ccccc32)c1,–,inactive
O=c1c2ccccc2nc(/C=C\c2ccc(F)cc2)n1-c1ccccc1F,inactive: 11.1%,–
c1ccc(CCCN2CCN(CCOC(c3ccccc3)c3ccccc3)CC2)cc1,inactive: 8.09%,–
CC(=O)NS(=O)(=O)c1ccc(NC(=O)c2cccn(Cc3ccc(Cl)cc3)c2=O)cc1,inactive: 8%,–
COc1ccc(OCC(=O)N2CCN(Cc3cc(=O)n4nc(-c5ccccc5C)sc4n3)CC2)cc1,inactive: 2.03%,–
O=C(CCc1nc(C2=CCN(Cc3cccc(Cl)c3)CC2)no1)Nc1ccccc1F,inactive: -2.98%,–
O=C(Nc1ccon1)c1cccn(Cc2ccccc2)c1=O,inactive: -8.38%,–
COc1ccc(/C=C/c2nc3ccccc3c(=O)n2-c2ccc(C)cc2)cc1O,–,inactive
Cc1ccc(-c2nc(CN3C(=O)CN=C(c4ccccc4)c4cc(Cl)ccc43)c(C)o2)cc1,inactive: -22%,–
Cc1cc(NC(=O)c2cccn(Cc3cccc(Cl)c3)c2=O)no1,inactive: -4.3%,–
Cc1cccc(-n2c(/C=C/c3cn(C)c4ccccc34)nc3ccccc3c2=O)c1,inactive: 1.02%,–
O=C1CC(c2ccc(Br)cc2)c2c(c3ccccc3oc2=O)O1 (configuration not stated),inactive: 2.05%,–
O=c1[nH]c2ccccc2c(=O)n1-c1ccc(Cl)c(Cl)c1,inactive: -4.34%,–
Cc1cccc(NC(=O)Cn2cc(C(=O)c3ccccc3)c3ccccc32)c1C,inactive: -3.37%,–
Cc1oc(-c2ccc(Cl)cc2)nc1CN1C(=O)CN=C(c2ccccc2)c2ccccc21,inactive: 0.984%,–
CN1[C@H]2CC(O)C[C@H]1[C@H]1O[C@H]12 (some centres not stated),inactive: -25%,–

SMILES,"activity change, negative = inhibition",outcome
C[C@H]1CCCC=CC2C[C@H](O)C[C@@H]2[C@H](O)C=CC(=O)O1 (some centres not stated),inactive: 5.91%,–
O=C(Nc1ccon1)c1cccn(Cc2cccc(Cl)c2)c1=O,–,inactive
O=C1CC(c2c(F)cccc2Cl)c2c(c3ccccc3oc2=O)O1 (configuration not stated),inactive: 8.12%,–
O=c1[nH]c2ccc(Cl)cc2c(N[C@@H]2CN3CCC2CC3)c1-c1nc2ccccc2[nH]1,inactive: 39.4%,–
Cc1nnc(NC(=O)c2cccn(Cc3ccccc3F)c2=O)s1,–,inactive
O=C(COc1ccc(Cl)cc1)Nc1ccc(Cl)cc1C(=O)c1ccccc1,inactive: 2.63%,–
Cc1c(C(c2ccc(F)cc2)c2c(O)c3ccccc3oc2=O)c(=O)n(-c2ccccc2)n1C (configuration not stated),inactive: -8.12%,–
CCCSc1nc2ccccc2c(=O)n1-c1ccccc1OC,–,inactive
Cc1cc(C)cc(-n2c(=O)[nH]c3ccccc3c2=O)c1,–,inactive
CC(=O)N1CC(=O)Nc2ccc(F)cc2C1c1ccccc1 (configuration not stated),inactive: -6.47%,–
CCC12CN3CC(CC)(CN(C1)C3c1ccccn1)C2=O (configuration not stated),inactive: -7.61%,–
CCN1C[C@]2(OC(=O)c3ccccc3NC(C)=O)CC[C@H](OC)[C@@]34[C@H]5CC6[C@@H](OC)C[C@](O)(C(C[C@@H]23)[C@@H]14)[C@@]5(O)[C@@H]6OC,inactive: -1.23%,–
CC(C)N[C@@H]1CCn2c(=O)[nH]c3cccc(c32)[C@@H]1O,inactive: 4.96%,–
Cc1nnc(NC(=O)c2cccn(Cc3ccc(Cl)cc3)c2=O)s1,inactive: -7.77%,–
Cc1ccc(-n2c(/C=C/c3ccc(Br)s3)nc3ccccc3c2=O)cc1C,–,inactive
COc1ccc(OC)c(NC(=O)Cn2cc(C(=O)c3ccccc3F)c3ccccc32)c1,–,inactive
c1ccc2c(CN3CCNCC3)cccc2c1,inactive: -3.96%,–
C#CCN(C)[C@H](C)Cc1ccccc1,inactive: -18.4%,–
Cc1ccc(NC(=O)N(Cc2ccc3c(c2)OCO3)C2CCN(Cc3ccccc3)CC2)cc1F,inactive: -12.9%,–
COc1ccc(NC(=O)CN2C(=O)C(C)N=C(c3ccccc3F)c3cc(Cl)ccc32)c(OC)c1 (configuration not stated),inactive: -0.811%,–
Cc1cc(C)cc(-n2c(/C=C/c3cccc(F)c3)nc3ccccc3c2=O)c1,inactive: -8.54%,–
